Reference: PubChem BioAssay AID894 (National Center for Advancing Translational Sciences (NCATS), 2007)
The campaign covered roughly 150,000 compounds. About 6,500 (4.3%) were called active. The inconclusive results got no clear call from the source; some entries with a clear call stand among them for comparison. The call rests on the fitted dose curve; in most records, active means well fitted inhibition curve with a large enough effect (not every such curve was filed as active); inconclusive means small, poorly fitted or top-dose-only effect, or another doubt; inactive means no such curve, though single readings can be large or run the other way. Potencies of inconclusive entries are left out as doubtful fits.

Target: 15-hydroxyprostaglandin dehydrogenase [NAD(+)] (Homo sapiens) (UniProt P15428)
Test: qHTS Assay for Inhibitors of HPGD (15-Hydroxyprostaglandin Dehydrogenase)
Details: purified HPGD, NADH fluorescence kinetic, PGE2 substrate; activity change, negative = inhibition: stronger effect = lower value
Method in brief: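 20 nM HPGD preincubated 15 min at room temperature with compound in 50 mM Tris-HCl pH 8, 0.01% Tween 20. Started with 1 mM NAD+ and 30 uM prostaglandin E2; NADH fluorescence (360/450 nm) read 5 times over 30-s intervals, last minus first.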
On the % scale 0 is the no-effect control and ±100 the full control effect; potency means the concentration at half of the fitted maximal effect; tags describe the fitted curve by direction and shape.

Chain of UniProt P15428 (P15428 whole entry, looked up): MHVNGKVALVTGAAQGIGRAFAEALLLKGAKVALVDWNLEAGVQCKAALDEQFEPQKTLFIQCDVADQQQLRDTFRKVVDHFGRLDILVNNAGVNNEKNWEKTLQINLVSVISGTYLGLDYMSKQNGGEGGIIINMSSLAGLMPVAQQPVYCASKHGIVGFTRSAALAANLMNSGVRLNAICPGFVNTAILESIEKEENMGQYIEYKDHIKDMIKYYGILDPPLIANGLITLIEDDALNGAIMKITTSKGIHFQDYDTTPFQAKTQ

SMILES | Potency | activity change, negative = inhibition
COc1ccc(-c2nsc3c(N4CCN(C(=O)c5ccco5)CC4)ncnc23)cc1 | inconclusive [inhibitor, single point] | 
CCOC(=O)c1c(C)oc2c1c1c(c3ccccc32)OCN(Cc2ccccn2)C1 |  | inactive: -8.18%
C/C(=N\NC(=O)c1ccc(CSc2cccc3cccnc23)cc1)C1CCCCC1 | inconclusive [inhibitor, partial curve] | 
CCOc1cc(C(=O)Nc2nnc(C)s2)cc(OCC)c1OCC | inconclusive [inhibitor, single point] | 
COc1ccccc1CNC(=O)C1CC(=O)N(C2CCCC2)C1 (centres undefined) |  | inactive: -15.6%
COc1ccc(OC)c(NC(=O)Nc2cccc3ccccc23)c1 | inconclusive [inhibitor, partial curve] | 
CCOC(=O)C1CCCN(S(=O)(=O)c2ccc(OC)cc2)C1 (centres undefined) |  | inactive: -5.25%
Cc1cccc(-n2c(-c3ccoc3C)n[nH]c2=S)c1 | active: 25.1 µM | 
COc1cccc2c(=O)c(C(=O)O)c[nH]c12 | inconclusive [inhibitor, partial curve] | 
Cc1ccc(C)c(NC(=O)CSc2nnc(C)c(=O)n2N)c1 |  | inactive: -5.39%
CCC1(C)Cc2c(c(=O)n(-c3ccccc3)c3ncnc(N)c23)CO1 (centres undefined) | inconclusive [inhibitor, partial curve] | 
CCN(CC)c1ccc(C(=O)OCC(=O)Nc2cc3oc4ccccc4c3cc2OC)cc1 | inconclusive [inhibitor, partial curve] | 
CC1CCCC(NC(=O)COC(=O)CCC2CCCC2)C1C (centres undefined) | inconclusive [inhibitor, partial curve] | 
COc1cc(/C=C/C(=O)OCC(=O)NC(=O)NC23CC4CC(CC(C4)C2)C3)ccc1OCC#N | inconclusive [inhibitor, single point] | 
CCOC(=O)CSc1nc(C(C)C)nc2ccccc12 |  | inactive: -5.25%
CCOc1cccc(-c2nnc(SCC(=O)Nc3ccc(OC)c(OC)c3)n2N)c1 |  | inactive: -3.4%
O=C(O)CCCCCn1c(O)c(C=C2N=c3ccccc3=N2)sc1=S | inconclusive [inhibitor, partial curve, poor fit] | 
Cc1ccccc1NC(=S)NC1CCN(Cc2ccccc2)CC1 |  | inactive: -6.58%
Nc1cc(N)cc(-c2nc3ccccc3[nH]2)c1 | inconclusive [inhibitor, single point] | 
COc1ccc(C2=NCC(CSc3nccc(=O)[nH]3)S2)cc1 (centres undefined) | active: 14.1 µM | 
COC(=O)C1=C(C)N(CCc2ccccc2)C(=O)/C1=C\c1ccco1 |  | inactive: -15.3%
CCCCNc1oc(-c2ccc(OC)cc2)nc1S(=O)(=O)c1ccccc1 | inconclusive [inhibitor, single point] | 

SMILES | Potency | activity change, negative = inhibition
O=C(/C=C/c1ccccc1)NCCc1ccc2c(c1)OCCO2 |  | inactive: -6.95%
Cn1c(SCC(=O)N2CCCCC2)nnc1-c1ccc(S(=O)(=O)N2CCOCC2)cc1 | inconclusive [inhibitor, partial curve, poor fit] | 
N#Cc1c(N2CCN(C(=O)c3ccco3)CC2)nc(-c2ccccc2)c2c1CCCC2 | inconclusive [inhibitor, partial curve] | 
COc1ccc(/C=N/Nc2cc(C)nc(-n3nc(C)cc3C)n2)c(OC)c1 | inconclusive [inhibitor, single point] | 
CCn1c(CNC(=O)c2cccc(C)c2)nnc1SCC(=O)NC1CCCCC1C (centres undefined) | inconclusive [inhibitor, partial curve] | 
CNc1nc(C)cc(C)c1S(=O)(=O)c1ccc(C)cc1 | inconclusive [inhibitor, partial curve] | 
Cc1nnc(NC(=O)c2oc3cc(C)c(C)cc3c2C)s1 | inconclusive [inhibitor, partial curve] | 
CC1CCN(C(=O)c2cc3nc(-c4ccccc4)cc(-c4ccccc4)n3n2)CC1 | inconclusive [inhibitor, partial curve] | 
Cc1nc2cnc(N(C)C)nc2n(C)c1=O | inconclusive [inhibitor, partial curve] | 
Cc1ccccc1NS(=O)(=O)c1ccc(N2CCCC2=O)cc1 | inconclusive [inhibitor, single point] | 
C=C1C[C@@]23C[C@]1(O)CC[C@@H]2[C@]12C=C[C@@H](O)[C@](C)(C(=O)O1)[C@H]2[C@H]3C(=O)O |  | inactive: -8.53%
Cc1ccccc1-c1coc2cc(O)ccc2c1=O | inconclusive [inhibitor, partial curve] | 
COc1ccc2cc(C(=O)CCC(=O)O)ccc2c1 | inconclusive [inhibitor, single point] | 
Cc1c(C(=O)Nc2ccc(Oc3ccccc3)cc2)sc2nc3n(c(=O)c12)CCC3 |  | inactive: -26.9%
CCOC(=O)N1CCC2(CC1)C(C#N)=C(N)Oc1c2c(C)nn1-c1cccc(Cl)c1 |  | inactive: -11%
CCOc1ccc(NC(=O)c2cc3c(=O)n(C)c4ccccc4c3n2C)cc1 | inconclusive [inhibitor, partial curve] | 
COC(=O)[C@@H]1CC[C@H](C)[C@@H](c2ccc(C)cc2)N1C(=O)c1ccc(/C=N/O[C@@H](C)CN2CCCCc3nc(C)c(C)cc32)cc1 | inconclusive [inhibitor, partial curve] | 
O=C(Nc1ccc2oc(=O)ccc2c1)c1cccnc1 | inconclusive [inhibitor, partial curve] | 
Cc1sc2ncnc(SCC(=O)N3CCCC3)c2c1C | inconclusive [inhibitor, single point] | 
O=C1c2ccccc2C(=O)N1CCc1csc(-c2ccc(F)cc2)n1 | inconclusive [inhibitor, single point] | 
Cc1cc2nnc(SCC(=O)OC(C)C)n2c2ccccc12 |  | inactive: -25.2%
S=C(Nc1ccc(Cl)cc1Cl)NC1CCN(Cc2ccccc2)CC1 |  | inactive: -4.12%
